In publication PMC6386420:
Substitutions are numbered along the chain they refer to. Results are given in words; binding and its absence hold for the method and conditions named. Binding seen in cells or lysates may run through a third protein. Some entries that bind do so weakly or less than the wild type. Where a sequence is shown, tags or fusion partners need not be part of it.

T1: FLAG-tagged full-length MDA5 (UniProt Q9BYX4)
T1 sequence: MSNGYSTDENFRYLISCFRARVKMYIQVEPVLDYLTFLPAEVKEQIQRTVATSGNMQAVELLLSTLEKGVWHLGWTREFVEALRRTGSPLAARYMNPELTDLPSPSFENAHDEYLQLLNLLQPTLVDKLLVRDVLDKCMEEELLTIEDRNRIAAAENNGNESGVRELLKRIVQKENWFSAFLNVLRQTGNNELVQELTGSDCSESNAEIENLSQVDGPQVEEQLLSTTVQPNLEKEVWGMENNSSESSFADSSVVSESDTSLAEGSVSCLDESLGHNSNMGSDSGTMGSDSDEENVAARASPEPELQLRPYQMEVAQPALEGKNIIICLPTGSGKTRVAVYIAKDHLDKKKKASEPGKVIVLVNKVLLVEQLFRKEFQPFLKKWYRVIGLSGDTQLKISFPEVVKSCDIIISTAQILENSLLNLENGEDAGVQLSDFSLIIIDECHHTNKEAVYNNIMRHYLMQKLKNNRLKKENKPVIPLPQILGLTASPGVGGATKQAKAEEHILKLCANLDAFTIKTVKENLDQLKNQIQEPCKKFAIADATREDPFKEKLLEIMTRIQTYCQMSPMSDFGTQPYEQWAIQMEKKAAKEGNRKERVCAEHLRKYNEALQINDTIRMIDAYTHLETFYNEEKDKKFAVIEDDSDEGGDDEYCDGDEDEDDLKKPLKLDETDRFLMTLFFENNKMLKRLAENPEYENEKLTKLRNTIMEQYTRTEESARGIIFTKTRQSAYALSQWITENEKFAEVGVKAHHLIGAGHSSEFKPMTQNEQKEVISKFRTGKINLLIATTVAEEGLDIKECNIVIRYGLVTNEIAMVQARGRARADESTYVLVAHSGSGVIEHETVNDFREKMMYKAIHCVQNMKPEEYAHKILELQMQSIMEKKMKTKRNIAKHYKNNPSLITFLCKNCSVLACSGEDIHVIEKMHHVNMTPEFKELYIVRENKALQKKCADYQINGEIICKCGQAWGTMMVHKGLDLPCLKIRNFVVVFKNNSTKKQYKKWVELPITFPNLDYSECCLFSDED

T2: FLAG-N-MDA5 (UniProt Q9BYX4)
T2 sequence: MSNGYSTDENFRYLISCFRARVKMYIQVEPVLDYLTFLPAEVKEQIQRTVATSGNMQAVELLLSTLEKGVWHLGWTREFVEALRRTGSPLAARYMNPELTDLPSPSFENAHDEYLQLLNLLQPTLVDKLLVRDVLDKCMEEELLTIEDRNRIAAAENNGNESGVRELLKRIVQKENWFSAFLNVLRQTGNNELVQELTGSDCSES

T3: FLAG-C-MDA5 (UniProt Q9BYX4)
T3 sequence: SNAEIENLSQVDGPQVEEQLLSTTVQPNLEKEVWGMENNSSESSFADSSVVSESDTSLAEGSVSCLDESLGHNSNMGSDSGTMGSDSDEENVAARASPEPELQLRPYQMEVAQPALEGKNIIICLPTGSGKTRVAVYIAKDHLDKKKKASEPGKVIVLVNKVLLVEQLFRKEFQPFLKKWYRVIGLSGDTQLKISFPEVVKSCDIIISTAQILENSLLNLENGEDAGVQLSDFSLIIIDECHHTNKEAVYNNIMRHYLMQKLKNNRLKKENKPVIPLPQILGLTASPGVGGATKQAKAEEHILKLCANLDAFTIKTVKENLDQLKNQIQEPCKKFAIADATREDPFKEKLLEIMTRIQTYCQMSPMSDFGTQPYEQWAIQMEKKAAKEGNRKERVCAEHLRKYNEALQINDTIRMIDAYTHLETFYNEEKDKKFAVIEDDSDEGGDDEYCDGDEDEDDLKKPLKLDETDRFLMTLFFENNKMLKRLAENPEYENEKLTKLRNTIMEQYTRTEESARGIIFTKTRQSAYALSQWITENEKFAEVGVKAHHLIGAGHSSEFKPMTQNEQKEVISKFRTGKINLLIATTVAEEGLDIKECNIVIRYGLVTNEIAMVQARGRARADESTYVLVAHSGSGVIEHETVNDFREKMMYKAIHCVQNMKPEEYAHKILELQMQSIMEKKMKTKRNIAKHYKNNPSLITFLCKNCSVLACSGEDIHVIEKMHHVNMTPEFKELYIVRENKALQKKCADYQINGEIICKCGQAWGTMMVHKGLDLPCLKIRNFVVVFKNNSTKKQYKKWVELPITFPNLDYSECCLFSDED

T4: FLAG-N-MDA5 S88A (UniProt Q9BYX4)
T4 sequence: T2 sequence with S88A

B1: myc-tagged 14-3-3γ (protein, UniProt P61981 1-247)
chain: MVDREQLVQKARLAEQAERYDDMAAAMKNVTELNEPLSNEERNLLSVAYKNVVGARRSSWRVISSIEQKTSADGNEKKIEMVRAYREKIEKELEAVCQDVLSLLDNYLIKNCSETQYESKVFYLKMKGDYYRYLAEVATGEKRATVVESSEKAYSEAHEISKEHMQPTHPIRLGLALNYSVFYYEIQNAPEQACHLAKTAFDDAIAELDTLNEDSYKDSTLIMQLLRDNLTLWTSDQQDDDGGEGNN
B2: myc-tagged 14-3-3η (protein, UniProt Q04917 1-246)
chain: MGDREQLLQRARLAEQAERYDDMASAMKAVTELNEPLSNEDRNLLSVAYKNVVGARRSSWRVISSIEQKTMADGNEKKLEKVKAYREKIEKELETVCNDVLSLLDKFLIKNCNDFQYESKVFYLKMKGDYYRYLAEVASGEKKNSVVEASEAAYKEAFEISKEQMQPTHPIRLGLALNFSVFYYEIQNAPEQACLLAKQAFDDAIAELDTLNEDSYKDSTLIMQLLRDNLTLWTSDQQDEEAGEGN
B3: myc-tagged 14-3-3θ (protein, UniProt P27348 1-245)
chain: MEKTELIQKAKLAEQAERYDDMATCMKAVTEQGAELSNEERNLLSVAYKNVVGGRRSAWRVISSIEQKTDTSDKKLQLIKDYREKVESELRSICTTVLELLDKYLIANATNPESKVFYLKMKGDYFRYLAEVACGDDRKQTIDNSQGAYQEAFDISKKEMQPTHPIRLGLALNFSVFYYEILNNPELACTLAKTAFDEAIAELDTLNEDSYKDSTLIMQLLRDNLTLWTSDSAGEECDAAEGAEN

Assays:
[1] = target: T1, FLAG-tagged full-length MDA5; assay: co-IP; Huh7 cells co-transfected with FLAG-tagged full-length MDA5 and myc-tagged 14-3-3 isoforms, mock or 1 μg/mL poly(I:C) for 6 h; anti-FLAG immunoprecipitation of lysates (RIPA buffer), immunoblot for myc
FLAG-N-MDA5 [2] = target: T2, FLAG-N-MDA5; assay: co-IP; Huh7 cells co-transfected with FLAG-N-MDA5 or FLAG-C-MDA5 and myc-tagged 14-3-3 isoforms; anti-FLAG immunoprecipitation of lysates, immunoblot
FLAG-C-MDA5 = target: T3, FLAG-C-MDA5; assay: as above
FLAG-N-MDA5 S88A = target: T4, FLAG-N-MDA5 S88A; assay: co-IP; HEK293 cells co-transfected with FLAG-MDA5-FL or FLAG-N-MDA5 (WT, S88A, S88D) and myc-tagged 14-3-3η; lysates immunoprecipitated with anti-FLAG beads, immunoblot
[3] = target: T1, FLAG-tagged full-length MDA5; assay: as above
FLAG-N-MDA5 [4] = target: T2, FLAG-N-MDA5; assay: as above

binding [1]	binding (FLAG-N-MDA5 [2])	binding (FLAG-C-MDA5)	binding (FLAG-N-MDA5 S88A)	binding [3]	binding (FLAG-N-MDA5 [4])	Binder
binds	binds	no binding	–	–	–	B1
binds	binds	no binding	binds	binds	binds	B2
binds	binds	no binding	–	–	–	B3
